Results reported in PubChem BioAssay AID504332 (National Center for Advancing Translational Sciences (NCATS), 2011).
“And” between values parts separate entries of the source, which are not always exact repeats. Identical values can stand only once. Among all 350,000 compounds or so, about 31,000 (8.9%) were called active. The shares of active, inactive and inconclusive entries below differ from those in the screen. Calls follow the shape of the dose curve; as a rule, active = well fitted inhibition curve with a large enough effect; inconclusive = small, poorly fitted or top-dose-only effect; inactive = no such curve, though single readings can be large or run the other way. Potencies of inconclusive entries are doubtful fits and often do not repeat.

biological target: Histone-lysine N-methyltransferase EHMT2 (Homo sapiens) (UniProt Q96KQ7); assay: qHTS Assay for Inhibitors of Histone Lysine Methyltransferase G9a; conditions: G9a H3K9 monomethylation, AlphaScreen, 2 h; activity, negative = inhibition: at 59 µM (top of the series) unless noted; also: nearly all actives have a fitted effect of over 75% in size
Procedure, shortened: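 Readings reflect AlphaScreen signal from monomethyl-H3K9 antibody detection. HMT at 20 nM; substrate b-H3K9 500 nM; cofactor SAM 20 uM; 2 h RT reaction; compounds tested as titrations in qHTS with 15 min preincubation.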
% is scaled to controls: 0 for no effect and ±100 for the full control effect; potency is read from the fitted curve at half-maximal effect; tags tell the direction and shape of the fitted curve.

Chain of UniProt Q96KQ7 (Q96KQ7 whole entry, looked up): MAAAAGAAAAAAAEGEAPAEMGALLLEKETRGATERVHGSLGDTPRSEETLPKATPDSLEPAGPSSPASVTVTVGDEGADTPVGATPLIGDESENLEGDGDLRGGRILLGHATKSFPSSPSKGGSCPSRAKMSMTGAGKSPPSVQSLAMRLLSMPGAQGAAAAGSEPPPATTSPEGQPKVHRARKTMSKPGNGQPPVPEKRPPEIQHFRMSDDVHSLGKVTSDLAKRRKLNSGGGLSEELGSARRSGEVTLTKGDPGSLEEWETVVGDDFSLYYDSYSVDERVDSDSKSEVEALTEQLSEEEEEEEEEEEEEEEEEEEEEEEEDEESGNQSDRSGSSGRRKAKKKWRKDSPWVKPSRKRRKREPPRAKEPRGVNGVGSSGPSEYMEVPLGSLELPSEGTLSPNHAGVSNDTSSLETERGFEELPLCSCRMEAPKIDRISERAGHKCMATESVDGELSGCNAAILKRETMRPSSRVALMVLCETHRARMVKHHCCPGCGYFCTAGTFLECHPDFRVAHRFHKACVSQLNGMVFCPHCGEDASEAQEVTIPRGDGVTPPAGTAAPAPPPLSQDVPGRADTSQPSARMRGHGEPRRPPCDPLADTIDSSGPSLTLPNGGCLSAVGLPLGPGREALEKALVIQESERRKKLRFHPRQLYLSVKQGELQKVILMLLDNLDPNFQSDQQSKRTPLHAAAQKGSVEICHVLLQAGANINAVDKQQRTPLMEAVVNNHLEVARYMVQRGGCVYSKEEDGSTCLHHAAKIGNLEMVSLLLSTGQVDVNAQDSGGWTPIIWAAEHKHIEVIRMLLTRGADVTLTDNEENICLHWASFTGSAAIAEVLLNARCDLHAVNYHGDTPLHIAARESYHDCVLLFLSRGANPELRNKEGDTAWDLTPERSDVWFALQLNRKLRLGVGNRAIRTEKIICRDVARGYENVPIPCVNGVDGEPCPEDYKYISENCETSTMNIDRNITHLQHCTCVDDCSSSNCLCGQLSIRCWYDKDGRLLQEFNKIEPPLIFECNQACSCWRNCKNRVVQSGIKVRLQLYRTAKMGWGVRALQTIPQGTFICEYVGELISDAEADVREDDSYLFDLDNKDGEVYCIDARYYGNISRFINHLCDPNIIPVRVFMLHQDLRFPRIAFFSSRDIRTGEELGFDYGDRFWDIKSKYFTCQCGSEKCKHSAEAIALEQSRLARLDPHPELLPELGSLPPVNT

SMILES | activity, negative = inhibition | Potency
CCc1ccc(-n2nc(C)c3c(C(=O)Nc4cc(OC)cc(OC)c4)cc(C)nc32)cc1 | inactive: -3.5% | 
COc1ccc(N(C2=NCCCS2)S(=O)(=O)c2ccc(C(C)(C)C)cc2)cc1 | inactive: 17.8% [at 102 µM] | 
Cc1nc(NC(C)(C)CO)c([N+](=O)[O-])cc1[N+](=O)[O-] | inactive: 13.4% | 
CC(Oc1ccc2ccc(=O)oc2c1)C(=O)NC1CC(C)(C)NC(C)(C)C1 (configuration not stated) | inconclusive: -57.3% [inhibitor] | 
COc1ccc(N(CC(=O)Nc2cccc(F)c2)S(=O)(=O)c2c(C)[nH]c(=O)[nH]c2=O)cc1 |  | inconclusive: 89.1 µM [inhibitor, partial curve, poor fit]
CCCCOC(=O)C(C)Nc1n[nH]c(=S)[nH]c1=O (configuration not stated) |  | inconclusive: 3.16 µM [inhibitor, single point]
CCOC(=O)c1c(CC(C)C)csc1/N=C/C1C(=O)CC(C)(C)CC1=O |  | inconclusive: 56.2 µM [inhibitor, partial curve, poor fit]
Cc1nn(CC(=O)NCc2ccccc2Cl)c(=O)c2nn(-c3ccccc3)c(C)c12 | inactive: 20.7% | 
CCN1CCC[C@H]1CNC(=O)c1c(OC)ccc(Br)c1OC |  | inactive
C=CCn1c(-c2ccccc2OCC)n[nH]c1=S |  | active: 7.08 µM
O=C(c1ccco1)N1CCN(C(c2ccc(F)cc2)c2nnnn2Cc2cccs2)CC1 (configuration not stated) |  | inconclusive: 39.8 µM [inhibitor, single point]
Cn1c(=O)[nH]c(=O)c2c1nc(N1CCCC1)n2CCCSc1nc2ccccc2o1 |  | inconclusive: 100 µM [inhibitor, single point]
N#Cc1nc(Cc2cccc3ccccc23)oc1NCCCn1ccnc1 |  | inconclusive: 39.8 µM [inhibitor, partial curve, poor fit]
O=C(/C=C/c1ccco1)Nc1ccc(Cl)c(S(=O)(=O)N2CCOCC2)c1 |  | active: 50.1 µM
COc1ccc(C2CC(c3ccc(C)cc3)Nc3ncnn32)cc1 (configuration not stated) |  | inconclusive: 44.7 µM [inhibitor, partial curve]
Cc1ccc(-c2nc(C)c(CCNS(=O)(=O)c3ccccc3F)s2)cc1 | inactive: 4.63% | 
COC(=O)Cc1cc(=O)[nH]c(/N=C(\N)Nc2ccccc2C)n1 |  | inconclusive: 31.6 µM [inhibitor, single point]
Cc1ccc(Sc2ccc(CN3CCCC3)cc2[N+](=O)[O-])cc1 |  | inconclusive: 44.7 µM [inhibitor, partial curve]
COc1ccc(N2C(=O)CC(S/C(N)=N/N=C/c3ccnc4ccccc34)C2=O)cc1 (configuration not stated) | inactive: 17.6% | 
COC(=O)C(C)Sc1nnc(-c2ccncc2)o1 (configuration not stated) | inactive: 9.87% [at 12.7 µM] | 
OCCNc1nc(Nc2ccc(Cl)c(Cl)c2)nc2ccccc12 |  | active: 50.1 µM
Cc1cc2c(n1-c1ccc(C(=O)O)cc1)CCCCC2 |  | active: 7.94 µM
COc1cc(/C=C2\C(=O)NN(c3ccccc3)C2=O)ccc1OCC(N)=O |  | active: 50.1 µM
COC(=O)CN1C(=O)CSc2ccc(S(=O)(=O)N3CCOCC3)cc21 |  | inconclusive: 5.01 µM [inhibitor, single point]

SMILES | activity, negative = inhibition | Potency
COc1ccccc1COCC(O)CN1CCCCC1CO (configuration not stated) |  | inconclusive: 89.1 µM [inhibitor, single point]
C=CCc1c(C)nc(-c2ccccc2)nc1N/N=C/c1ccncc1 | inactive: 0.847% [at 102 µM] | 
CC(=O)Nc1ccc(NC(C)=O)s1 |  | inconclusive: 3.16 µM [inhibitor, partial curve, poor fit]
COc1ccc(-c2csc(NC(=O)C3CCN(c4ncnc5sc(C)c(C)c45)CC3)n2)cc1OC |  | inconclusive: 50.1 µM [inhibitor, partial curve]
O=S(=O)(NCc1cccc(Br)c1)c1ccc(-c2cc(C(F)(F)F)on2)s1 | inactive: -7.03% | 
CS(=O)(=O)Nc1cccc(-c2nccc(NCc3cccs3)n2)c1 | inactive: 22.3% [at 0.501 µM] | 
O=c1[nH]c(=S)[nH]c2c1C(c1cc([N+](=O)[O-])c(N3CCOCC3)cc1N1CCOCC1)O2 (configuration not stated) |  | active: 44.7 µM
S=c1[nH]nc(-c2cc(-c3ccccc3)n[nH]2)n1/N=C/c1c2ccccc2cc2ccccc12 |  | inconclusive: 3.55 µM [inhibitor, partial curve, poor fit]
N#Cc1ccc(Oc2cnccn2)cc1 | inactive: 7.02% [at 102 µM] | 
CNC(=O)c1ccc2snnc2c1 |  | inconclusive: 89.1 µM [inhibitor, single point]
COC(=O)C1=C(C)N(c2cc(C)cc(C)c2)/C(=C/c2ccco2)C1=O |  | inconclusive: 39.8 µM [inhibitor, partial curve, poor fit]
N#Cc1nc(-c2ccc(Cl)cc2)oc1NCC1CCCO1 (configuration not stated) |  | inconclusive: 39.8 µM [inhibitor, full curve]
COc1ccc2[nH]cc(CCNC(=O)c3ccc4ccccc4n3)c2c1 |  | active: 70.8 µM
COc1cc(NS(C)(=O)=O)ccc1Nc1c2ccccc2nc2ccccc12 |  | active: 12.6 µM and active: 11.9 µM
CN(C)c1cccc(C(=O)OCC(=O)N2CCc3ccccc3C2)c1 |  | inconclusive: 79.4 µM [inhibitor, single point]
CNC(=S)N/N=C/c1cn(Cc2ccc(C)cc2)c2ccccc12 |  | active: 44.7 µM
CC(=O)Nc1ccc(Sc2ncnc3scc(-c4ccccc4)c23)cc1 |  | inconclusive: 17.8 µM [inhibitor, single point]
CC(C)Oc1cccc(C(=O)NC(=S)Nc2ccc3c4c(cccc24)CC3)c1 |  | inconclusive: 28.2 µM [inhibitor, full curve]
CCN(CC)S(=O)(=O)c1cc(NC(=O)C(C)OC(=O)c2[nH]c(C)c(C(C)=O)c2C)ccc1C (configuration not stated) |  | inconclusive: 0.141 µM [inhibitor, full curve, poor fit]
CCCCc1nnc(NC(=O)c2nc3nccc(C)n3n2)s1 |  | inconclusive: 50.1 µM [inhibitor, partial curve, poor fit]
CCOC(=O)C1=C(N)N2C(=O)C(C)SC2=C(C(=O)OC)C1c1cccc(OC)c1 (configuration not stated) | inactive: 7.67% [at 102 µM] | 
O=C(CSc1ccccn1)Nc1ccc(Cl)cn1 | inactive: 19.7% [at 102 µM] | 
CC(=O)Oc1cccc(/C=c2\sc3nc(-c4ccco4)nn3c2=O)c1 |  | inconclusive: 3.55 µM [inhibitor, partial curve, poor fit]
